# Reference: the supplement of paper PMC8728848
# Some of the results follow.
# B1: SAG3 (Toxoplasma gondii), Q9BJ39 (protein)
# chain: MQLWRRRAAGPASLGRQSLPLGCFFAAFGLCVLSAILGTGERGLFVAAGNSRRKITYFGTLTQKAPNWYRCSSTRAKEEVVGHVTLNKEHPDMTIECVDDGLGGEFLPLEGARSSYPRVCHIDAKDQDDCERNRGFLTDYIPGAKQYWYKIEKVEQNGEQSVLYKFTVPWILLPPAKQRYKVGCRYPNHEYCFVEVTVEPTPPMVEGKRVTCGYSESGPVNLEVDLSKNANFIEIRCGEQHHPQPSTYTLQYCSGDSVDPQKCSPQSLTNIFYDYSSSWWKGKLNGPDGATLTIPPGGFPEEDKSFLVGCSLTVDGPPFCNVKVRVAGNPRKWERGGGGHPGSGGLQPGTDGETQAGTGSSAGASSRMASVALAFLLGLLVHVAA
# Assays:
# Experiment in all cases: glycan array binding signal (z-score within array); higher = stronger binding
# Conditions in all cases: glycan notation: IUPAC condensed, linker removed
# [1] = biological target: Neu5Ac(a2-6)Gal(b1-4)GlcNAc6S
# In short: (§1)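 The binding signal is a Z-score computed within each array and averaged over linkers. Arrays of the same protein sequence at different concentrations or buffers were also averaged together. Data originate from 3228 arrays in the Consortium for Functional Glycomics database, kept only where the protein sequence was available.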
# [2] = biological target: Neu5Ac(a2-6)GalNAc
# In short: as §1
# [3] = biological target: Neu5Ac(a2-6)GalNAc(b1-4)GlcNAc
# In short: as §1
# [4] = biological target: Neu5Ac(a2-6)GlcNAc(b1-4)GlcNAc
# In short: as §1
# [5] = biological target: Neu5Ac(a2-6)GlcNAc(b1-4)GlcNAc(b1-4)GlcNAc
# In short: as §1
# [6] = biological target: Neu5Ac(a2-8)Neu5Ac
# In short: as §1
# [7] = biological target: Neu5Ac(a2-8)Neu5Ac(a2-3)Gal(b1-4)Glc
# In short: as §1
# [8] = biological target: Neu5Ac(a2-8)Neu5Ac(a2-3)[GalNAc(b1-4)]Gal(b1-4)Glc
# In short: as §1
# [9] = biological target: Neu5Ac(a2-8)Neu5Ac(a2-8)Neu5Ac
# In short: as §1
# [10] = biological target: Neu5Ac(a2-8)Neu5Ac(a2-8)Neu5Ac(a2-3)Gal(b1-4)Glc
# In short: as §1
# [11] = biological target: Neu5Ac(a2-8)Neu5Ac(a2-8)Neu5Ac(a2-3)[GalNAc(b1-4)]Gal(b1-4)Glc
# In short: as §1
# [12] = biological target: Neu5Ac(a2-8)Neu5Ac(a2-8)Neu5Ac(a2-8)Neu5Ac(a2-3)[GalNAc(b1-4)]Gal(b1-4)Glc
# In short: as §1
# [13] = biological target: Neu5Ac(b2-6)Gal(b1-4)GlcNAc
# In short: as §1
# [14] = biological target: Neu5Ac(b2-6)GalNAc
# In short: as §1
# [15] = biological target: Neu5Ac9Ac(a2-3)Gal(b1-3)GlcNAc
# In short: as §1
# [16] = biological target: Neu5Ac9Ac(a2-3)Gal(b1-4)GlcNAc
# In short: as §1
# [17] = biological target: Neu5Ac9Ac(a2-6)Gal(b1-4)GlcNAc
# In short: as §1
# [18] = biological target: Neu5Gc(a2-3)Gal(b1-3)GlcNAc
# In short: as §1
# [19] = biological target: Neu5Gc(a2-3)Gal(b1-3)[Fuc(a1-4)]GlcNAc
# In short: as §1
# [20] = biological target: Neu5Gc(a2-3)Gal(b1-4)Glc
# In short: as §1
# [21] = biological target: Neu5Gc(a2-3)Gal(b1-4)GlcNAc
# In short: as §1
# [22] = biological target: Neu5Gc(a2-3)Gal(b1-4)[Fuc(a1-3)]GlcNAc
# In short: as §1
# [23] = biological target: Neu5Gc(a2-6)Gal(b1-4)GlcNAc
# In short: as §1
# [24] = biological target: Neu5Gc(a2-6)GalNAc
# In short: as §1
# [25] = biological target: Neu5Gc(b2-6)Gal(b1-4)GlcNAc
# In short: as §1
binder,measurement,setting,value
B1,glycan array binding signal (z-score),[1],-0.656
same,glycan array binding signal (z-score),[2],0.099
same,glycan array binding signal (z-score),[3],-0.434
same,glycan array binding signal (z-score),[4],0.028
same,glycan array binding signal (z-score),[5],0.34
same,glycan array binding signal (z-score),[6],-0.242
same,glycan array binding signal (z-score),[7],0.246
same,glycan array binding signal (z-score),[8],2.27
same,glycan array binding signal (z-score),[9],0.149
same,glycan array binding signal (z-score),[10],0.127
same,glycan array binding signal (z-score),[11],-0.005
same,glycan array binding signal (z-score),[12],-0.615
same,glycan array binding signal (z-score),[13],0.676
same,glycan array binding signal (z-score),[14],-0.099
same,glycan array binding signal (z-score),[15],-0.025
same,glycan array binding signal (z-score),[16],-0.479
same,glycan array binding signal (z-score),[17],0.292
same,glycan array binding signal (z-score),[18],-0.073
same,glycan array binding signal (z-score),[19],-0.083
same,glycan array binding signal (z-score),[20],1.11
same,glycan array binding signal (z-score),[21],-0.368
same,glycan array binding signal (z-score),[22],0.185
same,glycan array binding signal (z-score),[23],-0.387
same,glycan array binding signal (z-score),[24],-0.546
same,glycan array binding signal (z-score),[25],-0.305
